The record followed here is publication PMC10810860.

Sequences of proteins named here, by UniProt entry; tags and fusion partners are left off.
UniProt Q16665: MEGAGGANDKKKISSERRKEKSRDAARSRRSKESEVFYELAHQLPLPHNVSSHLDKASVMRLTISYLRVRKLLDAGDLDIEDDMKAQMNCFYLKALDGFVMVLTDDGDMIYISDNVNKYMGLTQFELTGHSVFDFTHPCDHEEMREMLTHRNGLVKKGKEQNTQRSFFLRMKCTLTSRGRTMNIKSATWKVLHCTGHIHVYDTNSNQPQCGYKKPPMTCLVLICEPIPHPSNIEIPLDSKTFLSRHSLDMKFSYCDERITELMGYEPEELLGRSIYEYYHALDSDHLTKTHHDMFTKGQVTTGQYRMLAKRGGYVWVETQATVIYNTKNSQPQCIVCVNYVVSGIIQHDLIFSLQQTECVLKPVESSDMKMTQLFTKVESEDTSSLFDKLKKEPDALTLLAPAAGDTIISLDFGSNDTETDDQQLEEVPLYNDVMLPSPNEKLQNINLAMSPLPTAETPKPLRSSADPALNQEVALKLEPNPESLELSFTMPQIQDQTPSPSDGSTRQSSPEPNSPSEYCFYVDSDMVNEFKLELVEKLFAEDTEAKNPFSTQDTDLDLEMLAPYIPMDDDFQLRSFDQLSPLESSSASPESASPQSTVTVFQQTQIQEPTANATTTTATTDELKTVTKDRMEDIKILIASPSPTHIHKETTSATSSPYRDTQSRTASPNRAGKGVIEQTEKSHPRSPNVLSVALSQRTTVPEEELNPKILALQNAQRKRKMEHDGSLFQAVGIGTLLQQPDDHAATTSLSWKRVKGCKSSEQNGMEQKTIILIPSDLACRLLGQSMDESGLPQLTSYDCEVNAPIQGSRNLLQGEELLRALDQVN

Results are given in words; binding and its absence hold for the method and conditions named. Binding seen in cells or lysates may run through a third protein.

The target in experiment [1] is HIF1α (hypoxia-inducible factor 1 alpha), full-length, expressed by transfection, Q16665. Nature of the experiment: co-IP; co-IP/IB from lysates of HEK293T cells transfected as indicated (antibody with Protein A/G agarose overnight, then immunoblot). The settings on record: remark: other sources report otherwise. On the technique in general: In western blotting, separated proteins are transferred to a membrane and probed.

The target in experiment [2] is HIF1α (hypoxia-inducible factor 1 alpha), full-length, expressed by transfection (UniProt Q16665). Described as above.

B1: HOIL-1L (large isoform of heme-oxidized iron regulatory protein 2 ubiquitin ligase 1), expressed by transfection, Q9BYM8-1 1-510 (protein)
chain: MDEKTKKAEEMALSLTRAVAGGDEQVAMKCAIWLAEQRVPLSVQLKPEVSPTQDIRLWVSVEDAQMHTVTIWLTVRPDMTVASLKDMVFLDYGFPPVLQQWVIGQRLARDQETLHSHGVRQNGDSAYLYLLSARNTSLNPQELQRERQLRMLEDLGFKDLTLQPRGPLEPGPPKPGVPQEPGRGQPDAVPEPPPVGWQCPGCTFINKPTRPGCEMCCRARPEAYQVPASYQPDEEERARLAGEEEALRQYQQRKQQQQEGNYLQHVQLDQRSLVLNTEPAECPVCYSVLAPGEAVVLRECLHTFCRECLQGTIRNSQEAEVSCPFIDNTYSCSGKLLEREIKALLTPEDYQRFLDLGISIAENRSAFSYHCKTPDCKGWCFFEDDVNEFTCPVCFHVNCLLCKAIHEQMNCKEYQEDLALRAQNDVAARQTTEMLKVMLQQGEAMRCPQCQIVVQKKDGCDWIRCTVCHTEICWVTKGPRWGPGGPGDTSGGCRCRVNGIPCHPSCQNCH
On to B1, for which the binding result in experiment [1] is listed as “no binding”.

B2: Sharpin (SHANK-associated RH domain-interacting protein), expressed by transfection (protein, UniProt Q9H0F6 1-387)
chain: MAPPAGGAAAAASDLGSAAVLLAVHAAVRPLGAGPDAEAQLRRLQLSADPERPGRFRLELLGAGPGAVNLEWPLESVSYTIRGPTQHELQPPPGGPGTLSLHFLNPQEAQRWAVLVRGATVEGQNGSKSNSPPALGPEACPVSLPSPPEASTLKGPPPEADLPRSPGNLTEREELAGSLARAIAGGDEKGAAQVAAVLAQHRVALSVQLQEACFPPGPIRLQVTLEDAASAASAASSAHVALQVHPHCTVAALQEQVFSELGFPPAVQRWVIGRCLCVPERSLASYGVRQDGDPAFLYLLSAPREAPATGPSPQHPQKMDGELGRLFPPSLGLPPGPQPAASSLPSPLQPSWSCPSCTFINAPDRPGCEMCSTQRPCTWDPLAAAST
With B2, the binding entry in experiment [2] is listed as “no binding”.
